Data taken from publication PMC4336329 (PLoS ONE, 2015).
The campaign covered roughly 310,000 compounds. About 14,000 (4.5%) showed an effect of 50% or more. The effect is printed as a negative number. This is one part of the list.

Target: human ether-à-go-go-related gene (hERG) potassium channel (human, UniProt Q12809)
Test: primary screen, population patch clamp on CHO cells stably expressing hERG
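Note: peak tail current of the secondary pulse compared with the same well before compound.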

human ether-à-go-go-related gene (hERG) potassium channel, sequence (Q12809 whole entry, looked up): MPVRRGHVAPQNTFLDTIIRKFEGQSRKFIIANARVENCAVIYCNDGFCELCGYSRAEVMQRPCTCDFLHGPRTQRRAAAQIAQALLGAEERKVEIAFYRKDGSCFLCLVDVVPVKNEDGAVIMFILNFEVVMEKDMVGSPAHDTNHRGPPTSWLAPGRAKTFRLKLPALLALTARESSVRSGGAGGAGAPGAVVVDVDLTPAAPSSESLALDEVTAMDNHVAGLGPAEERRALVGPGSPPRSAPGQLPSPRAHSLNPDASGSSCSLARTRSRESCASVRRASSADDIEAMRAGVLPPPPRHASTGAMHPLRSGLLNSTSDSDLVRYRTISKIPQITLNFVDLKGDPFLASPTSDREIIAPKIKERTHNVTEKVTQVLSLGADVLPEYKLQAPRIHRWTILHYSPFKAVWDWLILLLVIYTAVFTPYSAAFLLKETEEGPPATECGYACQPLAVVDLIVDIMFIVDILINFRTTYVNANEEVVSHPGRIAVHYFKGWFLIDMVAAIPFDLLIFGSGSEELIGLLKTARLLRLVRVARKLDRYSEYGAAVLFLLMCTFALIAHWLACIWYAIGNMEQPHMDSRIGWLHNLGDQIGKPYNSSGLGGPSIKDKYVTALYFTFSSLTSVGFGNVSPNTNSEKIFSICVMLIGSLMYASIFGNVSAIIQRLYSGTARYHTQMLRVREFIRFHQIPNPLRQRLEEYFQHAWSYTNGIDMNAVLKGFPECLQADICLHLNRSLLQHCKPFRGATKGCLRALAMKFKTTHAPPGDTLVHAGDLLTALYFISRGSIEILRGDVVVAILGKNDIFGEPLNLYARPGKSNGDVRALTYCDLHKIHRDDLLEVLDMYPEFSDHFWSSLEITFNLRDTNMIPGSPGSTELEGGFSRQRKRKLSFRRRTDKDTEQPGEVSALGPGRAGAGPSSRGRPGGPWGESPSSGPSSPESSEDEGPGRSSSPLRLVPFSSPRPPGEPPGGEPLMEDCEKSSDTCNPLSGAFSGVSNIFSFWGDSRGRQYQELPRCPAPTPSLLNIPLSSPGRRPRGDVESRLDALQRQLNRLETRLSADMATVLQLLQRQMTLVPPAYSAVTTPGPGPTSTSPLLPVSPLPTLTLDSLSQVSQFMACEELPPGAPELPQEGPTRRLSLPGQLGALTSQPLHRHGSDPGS

Compared with `COc1ccc(Nc2cc(=O)oc3ccccc23)cc1`, `COc1cc2c(cc1NC(=O)Nc1ccccc1)oc1ccccc12` is higher in “hERG current change (%, negative = inhibition) at 10uM” value: 4.33% for the first, 19.5% for the second.

First: COc1ccc(NC(=O)COc2ccc(N(C)S(=O)(=O)c3ccc(Cl)cc3)cc2)cc1
Second: COc1ccc(N(CCC(=O)O)S(=O)(=O)c2ccc(C)c(C)c2)cc1
The “hERG current change (%, negative = inhibition) at 10uM” value of the first is higher: 5.33% for the first, -10.8% for the second.

Going from `CCCNC(=O)C1CCN(S(=O)(=O)c2ccc(-c3nn[nH]n3)cc2)CC1` to `CCCCC1(C)NC(=O)N(CC(=O)Nc2ccc(S(=O)(=O)N3CCOCC3)cc2)C1=O` (stereo not drawn), the “hERG current change (%, negative = inhibition) at 10uM” value rises from 1.91% to 6.65%.

Going from `O=C(Nc1ccc2c(c1)OCO2)N1CCN(Cc2ccco2)CC1` to `O=C(Nc1ccc2c(c1)OCO2)C(c1ccc(Cl)cc1)N1CCN(C(=O)c2ccco2)CC1` (stereo not drawn), the “hERG current change (%, negative = inhibition) at 10uM” value falls from 6.32% to -40%.

First: Cc1cccc(N2C(=O)NC(=O)/C(=C\c3cnc(-c4ccccc4)nc3)C2=O)c1
Second: Cc1nn(CCCC(=O)NCCc2ccccc2)c(=O)c2nn(-c3ccccc3)c(C)c12
The “hERG current change (%, negative = inhibition) at 10uM” value of the first is lower: -3.11% for the first, 3.79% for the second.

Going from `CC(C)(C)[C@@H]1CCC(=O)N(CC[C@H](Sc2ccccc2)c2ccccc2)CC1` to `Cc1oc(C(C)(C)C)cc1C(=O)NC1CCN(Cc2ccccc2)CC1`, the “hERG current change (%, negative = inhibition) at 10uM” value falls from 17.1% to -8.43%.

Going from `O=S(=O)(c1ccc(Cl)c(NC(=S)N/N=C/c2c(F)cccc2F)c1)N1CCOCC1` to `Cc1nc2ccc(NC(=O)c3ccc(S(=O)(=O)N4CCOCC4)cc3)cc2s1`, the “hERG current change (%, negative = inhibition) at 10uM” value falls from 18.1% to 5.2%.

Compared with `COCCCN1C(=O)C(=O)/C(=C(/O)c2ccc(S(=O)(=O)N3CCOCC3)cc2)C1c1ccc(Cl)cc1` (stereo not drawn), `COc1ccccc1N1CCN(C(=O)CCS(=O)(=O)c2ccc3c(c2)oc(=O)n3C)CC1` is lower in “hERG current change (%, negative = inhibition) at 10uM” value: 14.6% for the first, 2.61% for the second.

Going from `C[C@]1(OC(=O)/C=C/c2ccccc2)C[C@@H](O)[C@]2(O)C=CO[C@@H](O[C@@H]3O[C@H](CO)[C@@H](O)[C@H](O)[C@H]3O)[C@@H]21` to `COc1ccc(/C=C(\NC(=O)c2ccccc2)C(=O)NCc2ccco2)cc1OC`, the “hERG current change (%, negative = inhibition) at 10uM” value falls from 1.84% to 1.83%.

Compared with `Cc1ccc(-c2ccc(=O)n(CC(=O)NCc3ccc(F)cc3)n2)cc1`, `Cc1ccc(C(=O)Nc2ccc(C(=O)N/N=C/c3ccc(C)o3)cc2)cc1` is higher in “hERG current change (%, negative = inhibition) at 10uM” value: -20.2% for the first, 19.9% for the second.

Going from `CCC(C)N(C(=O)COC(=O)c1nc(Cl)ccc1Cl)C1CCS(=O)(=O)C1` (stereo not drawn) to `CCOC(=O)c1nn(-c2ccccc2)c(C(=O)OCC)c1N`, the “hERG current change (%, negative = inhibition) at 10uM” value rises from 0.886% to 5.84%.

First: CN(C)CCCn1c(N)c(C#N)c2nc3ccccc3nc21
Second: Cc1cccc(NC(=O)CSc2nc(C)c(Cc3ccccc3)c(=O)[nH]2)c1C
The “hERG current change (%, negative = inhibition) at 10uM” value of the first is lower: -11% for the first, 5.74% for the second.

Going from `N#Cc1cccc(NC(=O)COC(=O)c2ccccc2C(=O)c2ccc(Cl)c([N+](=O)[O-])c2)c1` to `Cc1cccc(C(=O)NCC(=O)OCC(=O)N(C)CC(=O)Nc2ccc(F)cc2)c1`, the “hERG current change (%, negative = inhibition) at 10uM” value rises from 1.77% to 8.6%.

Compared with `COc1cc(CCCN2CCNC[C@H]2Cc2ccc(O)cc2)cc(OC)c1OC`, `COc1cc(/C=C2\SC(=S)N(CCC(=O)Nc3ccccc3)C2=O)cc(OC)c1OC` is higher in “hERG current change (%, negative = inhibition) at 10uM” value: 9.33% for the first, 28.7% for the second.

First: CCOc1cc(NC(=O)c2ccco2)c(OCC)cc1NC(=O)COc1ccccc1C
Second: Cc1cc(C)cc(C(=O)NCC(=O)NNC(=O)CSc2ccccc2F)c1
The “hERG current change (%, negative = inhibition) at 10uM” value of the first is higher: 26.4% for the first, 8.47% for the second.

First: CCOC(=O)C1=C(N)Oc2c(oc(CO)cc2=O)C1c1ccc(F)c(F)c1 (stereo not drawn)
Second: O=C(COc1ccc2c3c(c(=O)oc2c1)CCC3)NCc1ccncc1
The “hERG current change (%, negative = inhibition) at 10uM” value of the first is higher: 1.95% for the first, -10.5% for the second.

First: Cc1cccc(NC2SC(=O)N(CC(=O)O)C2=O)c1 (stereo not drawn)
Second: CCc1cccc(C)c1NS(=O)(=O)c1cccs1
The “hERG current change (%, negative = inhibition) at 10uM” value of the first is higher: 3.59% for the first, -11.9% for the second.

First: CC(C)(CO)NCc1ccc(Br)cc1.Cl
Second: CCc1ccc(NC(=O)NCc2ccccn2)cc1
The “hERG current change (%, negative = inhibition) at 10uM” value of the first is lower: -8% for the first, 4.06% for the second.

First: CC1(C)Cc2c(c(-c3ccco3)nc3sc4c(NCCN5CCOCC5)ncnc4c23)CO1
Second: CCOC(=O)CN(C(=O)CN1CCOCC1)c1ccc(Br)cc1
The “hERG current change (%, negative = inhibition) at 10uM” value of the first is higher: -4.19% for the first, -7.76% for the second.

Compared with `Cc1cccc(-n2c(O)c(C=Nc3ccc4c(c3)OCO4)c3ccccc3c2=O)n1`, `Cc1nnc(SCC(=O)N2CC(=O)Nc3ccccc32)n1Cc1ccccc1` is higher in “hERG current change (%, negative = inhibition) at 10uM” value: -6% for the first, -2.24% for the second.

Compared with `O=C(O)CC1(CC(=O)NCc2csc(-c3cccs3)n2)CCCCC1`, `CC(NC(=O)c1ccccc1Br)c1nnc(SCC(=O)NC2CCCCC2)n1C` (stereo not drawn) is lower in “hERG current change (%, negative = inhibition) at 10uM” value: 4.62% for the first, -24.7% for the second.

Compared with `N#Cc1c(N2CCCCC2)nc(N)c2c(N)nc(SCC(=O)O)cc12`, `N#CC1=C(N)C(C#N)(C#N)C2(C(=O)Nc3ccccc32)C2CCCC=C12` (stereo not drawn) is higher in “hERG current change (%, negative = inhibition) at 10uM” value: -8.15% for the first, -5.47% for the second.

First: COc1ccc(NC2=NCCC2)cc1
Second: COc1ccc(C2=NOC(C(=O)NC(C)C)C2)cc1 (stereo not drawn)
The “hERG current change (%, negative = inhibition) at 10uM” value of the first is lower: 4.94% for the first, 15.8% for the second.

Compared with `COc1ccc(N(C(=O)c2csnn2)C(C(=O)NC2CCCC2)c2ccccc2)cc1` (stereo not drawn), `Cc1ccc(S(=O)(=O)CC(=O)NC(C)c2ccccc2)cc1` (stereo not drawn) is higher in “hERG current change (%, negative = inhibition) at 10uM” value: -9.35% for the first, 8.46% for the second.

Compared with `COc1ccnc(Oc2ccccc2)n1`, `Fc1ccc(SCCc2ccncc2)cc1` is lower in “hERG current change (%, negative = inhibition) at 10uM” value: 5.26% for the first, -29.9% for the second.

Compared with `CS(=O)(=O)c1ccc(NC(=O)c2cccc(-n3cnnn3)c2)cc1`, `Cc1nc2ccc(NC(=O)c3sccc3C)cc2s1` is lower in “hERG current change (%, negative = inhibition) at 10uM” value: 12.1% for the first, -7.79% for the second.

Going from `COc1ccc(CN(C)C(=O)C2CSC3(C)CCC(=O)N23)cc1OC` (stereo not drawn) to `CCc1ccc(OCC(=O)O/N=C(\N)Cc2ccc([N+](=O)[O-])cc2)cc1`, the “hERG current change (%, negative = inhibition) at 10uM” value falls from 15.5% to -53.9%.
